Article PMC4081100
Only a part is listed here, and it is no random draw. For some assays here: At the low end of the ranking the order means little. The list shows a part of the results. For some assays here: Construct or isoform of the protein are uncertain.

Legend:
Experiment in all cases: universal protein binding microarray (PBM)
Settings in all cases: transcription factors of Arabidopsis thaliana; high values mean tight binding; most listed sequences are background and not binding sites; double strand, one strand shown
GST-ANAC092(1-176) = biological target: T1, GST-ANAC092(1-176) (UniProt Q9FKA0)
T1 sequence: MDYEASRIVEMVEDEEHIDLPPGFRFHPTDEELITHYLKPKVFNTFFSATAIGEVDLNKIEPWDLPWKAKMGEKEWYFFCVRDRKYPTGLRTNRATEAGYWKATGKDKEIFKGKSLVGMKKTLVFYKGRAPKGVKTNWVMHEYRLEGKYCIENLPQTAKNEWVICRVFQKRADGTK

GST-NTL6(1-168) = GST-NTL6(1-168) (UniProt Q9SCK6)
GST-ANAC019 NAC domain = biological target: T2, GST-ANAC019 NAC domain (UniProt Q9C932)
T2 sequence: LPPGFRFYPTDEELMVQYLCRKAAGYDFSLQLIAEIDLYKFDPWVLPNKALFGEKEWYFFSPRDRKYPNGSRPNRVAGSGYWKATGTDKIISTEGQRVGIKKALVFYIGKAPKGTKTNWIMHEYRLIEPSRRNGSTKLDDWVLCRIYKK

GST-ANAC055(1-171) = biological target: T3, GST-ANAC055(1-171) (UniProt Q9LDY8)
T3 sequence: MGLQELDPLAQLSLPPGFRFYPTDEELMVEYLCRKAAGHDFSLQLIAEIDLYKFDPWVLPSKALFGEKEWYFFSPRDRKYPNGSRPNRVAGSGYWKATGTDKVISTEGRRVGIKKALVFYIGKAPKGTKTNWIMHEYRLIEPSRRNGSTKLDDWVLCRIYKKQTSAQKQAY

GST-ATAF1 NAC domain = biological target: T4, GST-ATAF1 NAC domain (UniProt Q39013)
T4 sequence: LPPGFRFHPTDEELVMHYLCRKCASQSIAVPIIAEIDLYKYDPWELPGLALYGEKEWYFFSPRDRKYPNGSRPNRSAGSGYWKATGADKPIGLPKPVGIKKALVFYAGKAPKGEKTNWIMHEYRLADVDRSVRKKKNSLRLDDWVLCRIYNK

GST-NAP(1-166) = biological target: T5, GST-NAP(1-166) (UniProt O49255)
T5 sequence: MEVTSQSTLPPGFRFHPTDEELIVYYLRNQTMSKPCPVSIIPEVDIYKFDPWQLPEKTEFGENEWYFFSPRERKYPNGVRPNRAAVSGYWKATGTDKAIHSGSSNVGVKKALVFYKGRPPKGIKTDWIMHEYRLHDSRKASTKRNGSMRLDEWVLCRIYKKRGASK

GST-NST2(1-184) = biological target: T6, GST-NST2(1-184) (UniProt Q9M274)
T6 sequence: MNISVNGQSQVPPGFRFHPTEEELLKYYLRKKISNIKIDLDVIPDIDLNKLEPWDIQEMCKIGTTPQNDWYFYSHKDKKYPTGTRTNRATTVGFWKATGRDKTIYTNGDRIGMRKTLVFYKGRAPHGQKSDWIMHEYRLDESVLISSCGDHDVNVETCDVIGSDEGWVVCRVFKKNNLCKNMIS

GST-NTL8 NAC domain = biological target: T7, GST-NTL8 NAC domain (UniProt Q9XIN7)
T7 sequence: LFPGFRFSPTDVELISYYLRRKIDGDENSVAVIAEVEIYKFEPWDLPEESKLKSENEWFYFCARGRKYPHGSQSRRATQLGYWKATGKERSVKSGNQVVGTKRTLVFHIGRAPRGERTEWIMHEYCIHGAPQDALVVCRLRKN

GST-SND1(1-203) = biological target: T8, GST-SND1(1-203) (UniProt Q9LPI7)
T8 sequence: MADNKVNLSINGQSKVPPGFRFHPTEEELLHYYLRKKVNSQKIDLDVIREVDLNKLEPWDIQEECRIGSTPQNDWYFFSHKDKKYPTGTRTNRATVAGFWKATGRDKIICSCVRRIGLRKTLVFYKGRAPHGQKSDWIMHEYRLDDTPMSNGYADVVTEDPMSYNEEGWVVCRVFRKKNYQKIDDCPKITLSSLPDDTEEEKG

[1] = biological target: T9, GST-VOZ2 (Arabidopsis thaliana) (UniProt Q9SLB9)
T9 sequence: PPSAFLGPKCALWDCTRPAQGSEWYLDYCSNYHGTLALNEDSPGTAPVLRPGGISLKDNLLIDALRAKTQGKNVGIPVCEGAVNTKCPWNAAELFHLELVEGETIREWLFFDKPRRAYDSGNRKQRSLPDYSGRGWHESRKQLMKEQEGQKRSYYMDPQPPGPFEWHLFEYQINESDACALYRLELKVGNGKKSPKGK

GST-WRKY1(266-371) = GST-WRKY1(266-371) (UniProt Q9SI37)
[2] = biological target: T10, GST-ANAC092(1-285) full length (UniProt Q9FKA0)
T10 sequence: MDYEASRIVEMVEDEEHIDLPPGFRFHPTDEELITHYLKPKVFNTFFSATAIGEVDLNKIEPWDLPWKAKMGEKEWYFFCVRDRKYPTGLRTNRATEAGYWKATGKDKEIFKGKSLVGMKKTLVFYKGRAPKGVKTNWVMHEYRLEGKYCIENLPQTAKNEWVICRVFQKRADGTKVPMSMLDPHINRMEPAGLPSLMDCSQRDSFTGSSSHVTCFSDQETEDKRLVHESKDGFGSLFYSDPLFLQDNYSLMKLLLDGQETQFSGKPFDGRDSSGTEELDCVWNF

GST-VND7 NAC domain = biological target: T11, GST-VND7 NAC domain (UniProt Q9C8W9)
T11 sequence: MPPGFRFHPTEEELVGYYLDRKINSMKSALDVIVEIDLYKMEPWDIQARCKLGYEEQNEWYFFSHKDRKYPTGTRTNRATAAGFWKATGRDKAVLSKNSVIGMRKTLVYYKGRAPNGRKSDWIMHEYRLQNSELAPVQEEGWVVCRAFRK

Row | Sequence | binding signal (GST-ANAC092(1-176)) [E-score] | binding signal (GST-NTL6(1-168)) [E-score] | binding signal (GST-ANAC019 NAC domain) [E-score] | binding signal (GST-ANAC055(1-171)) [E-score] | binding signal (GST-ATAF1 NAC domain) [E-score] | binding signal (GST-NAP(1-166)) [E-score] | binding signal (GST-NST2(1-184)) [E-score] | binding signal (GST-NTL8 NAC domain) [E-score] | binding signal (GST-SND1(1-203)) [E-score] | binding signal [1] [E-score] | binding signal (GST-WRKY1(266-371)) [E-score] | binding signal [2] [E-score] | binding signal (GST-VND7 NAC domain) [E-score]
1 | CCTTACCC | 0.0229 | 0.366 | -0.0309 | -0.111 | -0.0121 | -0.000545 | -0.0517 | 0.404 | 0.167 | 0.187 | -0.0586 |  | 
2 | GGTCATAC | -0.0825 | -0.0412 | -0.0286 | 0.0279 | 0.0109 | 0.108 | -0.064 | -0.0306 | 0.0207 | -0.00314 |  | 0.0464 | -0.153
3 | ATTGACCA |  | 0.0183 | -0.0895 |  |  | -0.0299 | -0.0512 | 0.163 | -0.0675 | 0.11 |  |  | 0.0794
4 | TAGGTCAA | -0.047 | -0.0258 | 0.0197 | 0.077 |  | -0.109 | -0.0594 | -0.0182 | -0.0812 | 0.0435 |  | -0.0154 | -0.0159
5 | ATATTGAC | -0.0563 | 0.00136 | -0.1 | 0.0422 |  | 0.178 | 0.0439 | -0.0853 | -0.0493 | 0.109 | 0.453 | 0.0114 | 
6 | ATTTTGAC | 0.0462 | 0.0308 | -0.0216 | 0.0321 |  | -0.00087 | 0.0826 | 0.0371 | 0.0389 | 0.063 |  |  | 0.0311
7 | CCAAGCAA |  |  |  |  |  | -0.0807 |  | 0.0676 | 0.405 | 0.0795 | -0.0823 | 0.356 | 0.0241
8 | ATTAAGTA |  |  | 0.0145 |  |  | 0.0294 |  | 0.0105 | 0.267 | 0.117 | -0.0971 |  | -0.0662
9 | ATTAGTCA | 0.0025 | -0.107 | -0.0828 | 0.0956 |  | -0.0764 | -0.0582 | -0.0474 | -0.0574 | 0.000215 |  | 0.0225 | -0.0672
10 | TTCGTCAA | -0.018 | 0.0728 | -0.069 |  |  | 0.0113 | 0.0662 | -0.156 | -0.0342 | -0.0162 |  |  | -0.0377
11 | ACGCAAAG |  | 0.102 |  | 0.228 |  |  |  |  | 0.407 | 0.16 |  | 0.452 | 0.346
12 | TAGTCAAA | -0.102 | -0.112 | -0.0285 |  |  | -0.0307 | -0.0388 | 0.0243 | -0.0706 | -0.00959 |  | 0.0255 | 0.049
13 | ACGCAAGA |  | 0.116 |  |  |  | 0.285 | 0.315 | 0.128 | 0.405 | 0.0219 |  |  | 0.194
14 | AGAAAGTC | -0.00235 | -0.00031 |  |  | 0.103 | -0.0145 | -0.0367 | 0.0673 | -0.0376 | -0.248 |  | 0.00409 | 0.0428
15 | AAGGAAAG | 0.261 | 0.398 | 0.104 |  |  | -0.0269 | 0.239 | 0.467 | 0.262 | 0.00145 |  |  | 0.117
16 | TGGTCAAA |  | -0.00392 | -0.0774 | 0.0433 |  | 0.0186 | -0.0943 | -0.0734 | -0.00128 | 0.0882 |  |  | -0.0711
17 | CGTCAACA |  |  | 0.0912 |  |  | 0.116 |  | -0.0783 | 0.181 | 0.145 |  | 0.196 | 0.0179
18 | AGTTGACG |  | -0.0706 | 0.0919 |  | 0.213 | 0.0554 |  | -0.141 | 0.198 | 0.0618 |  | -0.00485 | 0.0414
19 | AATTGACC | 0.0284 | -0.0267 | -0.0179 |  |  | -0.0234 |  | 0.0822 | 0.0323 | 0.158 |  | 0.0323 | 0.0269
20 | ACAGGGAA |  |  | -0.041 |  | -0.0736 |  |  |  | 0.108 | 0.052 | -0.0105 | -0.00859 | -0.012
21 | CATTGACG | 0.0178 | -0.0472 | -0.05 | -0.0643 | -0.00158 | 0.0312 | -0.0094 | -0.149 | -0.0678 | -0.0109 |  |  | -0.154
22 | AGGGTAAT |  |  | 0.116 | 0.17 | 0.114 | 0.0149 | 0.0716 |  | 0.0326 | 0.0602 | -0.0594 | 0.108 | 0.0425
23 | GTTAAGGA |  |  |  |  |  | 0.0155 |  |  | 0.276 | 0.012 |  |  | 0.0488
24 | AACACGCT |  | 0.134 |  |  |  |  |  | -0.00494 | 0.227 | 0.00831 | 0.0117 |  | 0.142
25 | GTTGCTTA |  |  | 0.00421 |  |  | 0.0145 |  | 0.13 | 0.469 | 0.0351 | -0.122 | 0.393 | 0.14
26 | GCACGGCA |  | -0.151 |  |  |  |  |  | -0.0536 | 0.107 | -0.113 | -0.0751 |  | 
27 | AACTTGAC |  | 0.0283 | 0.00633 |  |  | 0.043 | 0.173 | 0.0439 | 0.136 | -0.0872 | 0.425 | 0.088 | 
28 | ATTGCTTC |  |  | 0.108 | 0.0988 | -0.0282 | 0.0172 |  | 0.278 | 0.411 | -0.0112 | -0.0776 |  | 
29 | GCACGTAA |  | 0.0413 |  | 0.433 |  |  |  | 0.189 | 0.225 | 0.0107 | -0.0362 |  | 
30 | AGAGTCAA | -0.00378 | 0.0479 |  | 0.0194 | 0.0426 | 0.0194 |  | -0.0389 | 0.0237 | -0.131 | 0.48 | -0.121 | 
